From PubChem BioAssay AID1986 (Sanford-Burnham Center for Chemical Genomics, 2009)
The list shows a part of the results. The main result of the screen is listed elsewhere. These columns were measured beside it and carry no call.

assay: cell-free HIV fusion peptide-binding blockers – biochemical, uHTS, fluorescence dequenching, primary screen (AID 1986); conditions: 30 min, measured here: repeat confirmation average inhibition, at 18.6 µM, stronger effect = higher value

SMILES	inhibition
NC(=O)Cn1cc(C=C2C(=O)NC(=O)NC2=O)c2ccccc21	190%
O=C1NC(=S)N(c2ccc(F)cc2)C(=O)/C1=C\c1ccoc1	88.2%
CCCCN1C(=O)/C(=C/C=C/c2ccco2)C(=O)NC1=S	81.4%
COC1C(OC(=O)c2ccc(C)[nH]2)C(O)C(Oc2ccc3c(O)c(NC(=O)c4ccc(O)c(CC=C(C)C)c4)c(=O)oc3c2Cl)OC1(C)C (stereo unspecified)	65%
O=c1oc2ccccc2c(O)c1C(c1ccc([N+](=O)[O-])cc1)c1c(O)c2ccccc2oc1=O	77.3%
O=C(N/N=C/c1c(O)n(C2CCCCC2)c(=S)[nH]c1=O)c1ccccc1O	73.9%
O=C1NC(=S)N(c2ccc(F)cc2)C(=O)/C1=C/c1ccco1	71.9%
COc1ccc(OC)c(N2C(=O)/C(=C/c3ccco3)C(=O)NC2=S)c1	63.4%
Cc1ccc(N2C(=O)/C(=C/c3ccc(CN(CCC#N)S(C)(=O)=O)o3)C(=O)NC2=S)cc1C	66.4%
COc1ccc(N2C(=O)/C(=C/c3ccco3)C(=O)NC2=S)cc1	67.1%
O=C(O)c1cccc2c1NC(c1cccc([N+](=O)[O-])c1)C1CC(Sc3ccccc3[N+](=O)[O-])C(Cl)C21 (stereo unspecified)	78.4%
